# According to paper PMC4336329 (PLoS ONE, 2015):
# Hit rate of the full screen: of about 310,000 compounds, about 2,200 (0.71%) showed an effect of 50% or more. Effects have a minus sign here. Some of the results follow.
# Biological target: human ether-à-go-go-related gene (hERG) potassium channel (human, UniProt Q12809)
# Test: primary screen, population patch clamp on CHO cells stably expressing hERG
# Chain of human ether-à-go-go-related gene (hERG) potassium channel (Q12809 whole entry, looked up): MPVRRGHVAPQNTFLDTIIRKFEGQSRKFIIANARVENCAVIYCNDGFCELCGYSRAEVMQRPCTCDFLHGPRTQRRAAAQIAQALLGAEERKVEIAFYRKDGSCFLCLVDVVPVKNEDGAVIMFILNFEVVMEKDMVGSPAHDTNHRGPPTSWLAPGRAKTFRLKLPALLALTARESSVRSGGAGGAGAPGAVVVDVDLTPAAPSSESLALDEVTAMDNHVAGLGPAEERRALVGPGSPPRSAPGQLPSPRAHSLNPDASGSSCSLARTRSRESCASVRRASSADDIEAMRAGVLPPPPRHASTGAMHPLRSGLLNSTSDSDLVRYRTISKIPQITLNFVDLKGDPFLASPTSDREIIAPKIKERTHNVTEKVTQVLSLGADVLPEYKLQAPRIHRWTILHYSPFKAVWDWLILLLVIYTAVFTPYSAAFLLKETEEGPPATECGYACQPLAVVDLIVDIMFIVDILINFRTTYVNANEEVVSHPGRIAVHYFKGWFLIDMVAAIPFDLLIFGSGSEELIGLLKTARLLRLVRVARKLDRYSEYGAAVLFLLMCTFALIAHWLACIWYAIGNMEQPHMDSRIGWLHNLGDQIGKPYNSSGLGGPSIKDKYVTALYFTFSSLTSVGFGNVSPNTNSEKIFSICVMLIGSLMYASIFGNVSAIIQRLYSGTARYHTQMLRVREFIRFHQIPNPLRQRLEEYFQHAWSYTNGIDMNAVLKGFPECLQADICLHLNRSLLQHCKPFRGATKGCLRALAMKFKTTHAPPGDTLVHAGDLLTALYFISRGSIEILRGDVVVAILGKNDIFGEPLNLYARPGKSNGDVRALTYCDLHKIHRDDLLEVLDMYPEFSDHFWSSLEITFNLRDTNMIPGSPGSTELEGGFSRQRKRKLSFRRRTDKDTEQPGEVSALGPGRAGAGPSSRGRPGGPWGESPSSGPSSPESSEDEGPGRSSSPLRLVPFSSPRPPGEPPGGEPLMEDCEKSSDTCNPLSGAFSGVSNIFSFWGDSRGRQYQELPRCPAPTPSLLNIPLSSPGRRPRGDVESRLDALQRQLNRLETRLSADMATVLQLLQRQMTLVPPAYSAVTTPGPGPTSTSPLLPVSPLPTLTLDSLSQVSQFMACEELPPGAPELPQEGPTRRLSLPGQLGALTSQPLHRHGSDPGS
row,SMILES,"hERG current change (%, negative = inhibition) at 1uM [%]"
1,NNC(=O)c1cc(-c2ccc(N)cc2)nc2ccc(Br)cc12,15.6
2,O=C(COC(=O)c1c(Cl)cccc1Cl)NC1CCCCC1,11.1
3,Cc1ccsc1C(=O)C1CCCN(Cc2sc(N(C)C)nc2Cl)C1 (stereo not drawn),8.76
4,Cc1ccccc1OCC(O)Cn1c(NCc2ccco2)nc2c1c(=O)n(C)c(=O)n2C (stereo not drawn),2.07
5,COc1cccc(-c2c(-c3cc(OC)cc(OC)c3)n(C)c3ccc(Br)cc23)c1,10.8
6,Cc1ccccc1C(=O)NC(=S)Nc1sc2c(c1C#N)CCC(C)C2 (stereo not drawn),8.73
7,COCCCNC(=O)CC(NS(=O)(=O)c1ccc(Cl)cc1)c1ccc(OC)cc1 (stereo not drawn),7.54
8,CCc1cccc(NC(=S)N(CCN(C)C)C2CCN(C(C)C)CC2)c1,14.3
9,COc1cccc2c1OC1(C)CC2NC(=O)N1c1cccc(C(=O)N2CCN(c3ccccn3)CC2)c1 (stereo not drawn),12.6
10,O=C(O)CCN1C(=O)C2C3c4ccccc4C(c4ccccc43)[C@@H]2C1=O (stereo partly drawn),1.03
11,C=CCNC(=O)c1cc(-c2ccccc2O)on1,10.6
12,COc1cccc(C(=O)Nc2nnc(-c3ccccc3)s2)c1OC,11.7
13,COc1ccccc1CNc1nc2nc(C)c(Cl)c(=O)n2[nH]1,3.72
14,CCSC1=NN1c1cc(C)nc(N)n1,5.22
15,COc1ccc(Oc2cc(C(F)(F)F)nc(N(C)C)n2)cc1,11.8
16,COc1cccc(CC(=O)n2nc(N)c3cc4ccc(OC)cc4nc32)c1,7.61
17,CCN(CC)CCCOc1ccc(C)cc1Br,-45.3
18,Cc1ccc(CNC(=O)[C@@H](NC(=O)Cc2ccccc2)C(C)C)cc1,11.9
19,Cc1cc(=O)nc2c3ccccc3n(C(C)C(=O)NCCN3CCOCC3)n12 (stereo not drawn),11.2
20,COc1ccc(CNC(=O)COC(=O)C2CCC(C(C)(C)C)CC2)cc1 (stereo not drawn),14.8
21,O=C(CCc1nnc(C2CCCCC2)o1)N1CCC(Oc2cccnc2)CC1,19.6
22,O=C(COC(=O)Cc1c[nH]c2ccccc12)Nc1ccccc1,11.7
23,O=S(=O)(c1ccccc1)N1CCN(Cc2cccc(Br)c2)CC1,17.8

row,SMILES,"hERG current change (%, negative = inhibition) at 1uM [%]"
1,O=C(CCNC(=O)c1ccccc1Cl)NC1=NCCS1,9.35
2,Cc1nc2scc(C)n2c(=O)c1S(=O)(=O)N1CCN(c2ccccc2)CC1,0.702
3,CCn1c(-c2cc(Br)ccc2O)n[nH]c1=S,13.8
4,Cc1cc(C)cc(Oc2coc3cc(OC(=O)c4cccnc4)ccc3c2=O)c1,13.5
5,CC(=O)Nc1ccc(S(=O)(=O)NC(C)C(=O)NCC(c2ccco2)N2CCCCC2)cc1 (stereo not drawn),6.37
6,CC(NC(=O)c1cc(F)c(F)c(F)c1F)c1ccc(-n2ccnc2)cc1 (stereo not drawn),-37.3
7,CCCCCCN=C(C)c1c(O)n(CCCC)c(=O)[nH]c1=O,6.09
8,Cc1cccc(NC(=S)N/N=C/c2cccc([N+](=O)[O-])c2)c1,-2.16
9,O=C(OCc1c(F)cccc1Cl)c1cnc2ccccc2n1,15.4
10,CC1C(c2ccccc2)N(C)C(c2ccccc2)CC1(O)c1ccccc1 (stereo not drawn),5.03
11,O=C(Nc1ccccc1C(F)(F)F)C1CCN(C(=O)Cc2ccccc2)CC1,12.6
12,Cc1cc(C)n(-c2ccc(NN=C(C#N)C#N)cc2)n1,-10.2
13,CCS(=O)(=O)N1CCC(C(=O)N2CCc3ccccc3C2)CC1,6.19
14,O=C1CC(N2CCOCC2)C(=O)N1c1ccc2c(c1)OCO2 (stereo not drawn),-7.44
15,Cc1ccsc1/C=C1\CCc2ccccc2C1=O,2.54
16,CCC(CC)NC(=O)COC(=O)CCC(=O)c1cccs1,-2.05
17,Cc1nn(-c2ccccc2)c(Cl)c1/C=N/N1CCN(c2ccccn2)CC1,19.1
18,COc1cc(C(CC(=O)Nc2cccc(C)n2)N2Cc3ccccc3C2=O)cc(OC)c1OC (stereo not drawn),6.6
19,CCOC(=O)CSC1=C(C#N)C(c2ccccc2)C(C(C)=O)=C(C)N1 (stereo not drawn),12.9
20,Cl.NCCSSCCN,11
21,COCCn1c(SCc2nc(N)nc(Nc3ccccc3C)n2)nc2ccccc2c1=O,-1.05
22,COc1ccc(O)c(C(C)(C)C)c1,1.86
23,CCC(CC)c1nnc(NC(=O)CCc2ccccc2OC)s1,7.48

row,SMILES,"hERG current change (%, negative = inhibition) at 1uM [%]"
1,CC(=O)/C(=N\Nc1ccccc1)Oc1ccc(Br)cc1,16.6
2,CCn1cc(C(=O)NCCc2ccc(OC)cc2)c(=O)c2ccc(C)nc21,11.2
3,CCCCNC(=O)c1ccc2c(c1)ncn2C1CCCC1,-3.73
4,CN1CCc2c(C#N)c(Cl)nc(Cl)c2C1,12.4
5,Cc1cc(C)cc(NC(=O)Cn2nnc(C(=O)NCCc3ccccc3)c2N)c1,11.6
6,CCc1ccc(N2CC(C(=O)Nc3ccc(S(=O)(=O)Nc4ncccn4)cc3)CC2=O)cc1 (stereo not drawn),12.3
7,COCCCNC(=O)CCSc1ccc(Cl)cc1,-11.5
8,COc1ccc(CCNC(=O)c2c(O)c3cccc4c3n(c2=O)CC4)cc1OC,-6.66
9,COc1cc(/C=N/Nc2ccc([N+](=O)[O-])cn2)cc(OC)c1O,13.1
10,COc1cc(/C=C/C(=O)OCC(=O)c2c[nH]c3ccccc23)ccc1OC(F)F,10.9
11,COc1ccc(/C=C/c2nc3ccccc3n2Cc2ccccc2OC)cc1,7.68
12,O=C(CSc1nnnn1-c1ccccc1)NCc1cccs1,18.9
13,CC(=O)c1c(C)[nH]c(C(=O)OCc2cc(=O)n3cc(Br)ccc3n2)c1C,4.39
14,Cc1ccc(S(=O)(=O)NCc2ccccc2)cc1C(=O)NC1CCCCC1,11.1
15,C=CCn1c(=O)/c(=C/c2ccc(F)cc2)s/c1=C(\C#N)c1nnc2n1CCCCC2,-6.39
16,CCOC(=O)c1cc(NC(=O)c2ccoc2C)cc(C(=O)OCC)c1,-7.79
17,CC(=O)Nc1ccc(NC(=O)C(C)OC(=O)CCCc2c[nH]c3ccccc23)cc1 (stereo not drawn),23.4
18,O=C(CCNS(=O)(=O)c1cccc2nsnc12)NCc1ccccc1,0.712
19,CC(C)NC(=O)NC(=O)COC(=O)c1ccc(S(=O)(=O)NCc2ccco2)cc1,10.9
20,C=CCN1C(=O)CSc2ccc(C(=O)N3CCC(C)CC3)cc21,-3.44
21,Clc1ccccc1Cc1noc(CN2CCN3CCCC3C2)n1 (stereo not drawn),2.3
22,O=C(CSc1nc2c([nH]c3ccccc32)c(=O)n1-c1ccc(F)cc1)NCc1ccco1,8.46
23,CC(C)(C)NC(=O)NC(=O)CN1CCN(c2ccc(O)cc2)CC1,7.9

row,SMILES,"hERG current change (%, negative = inhibition) at 1uM [%]"
1,COC(=O)c1ccc(NS(=O)(=O)c2cc(C)ccc2OC)cc1,7.08
2,O=C(CNc1ccc(Br)cc1)c1ccc(O)cc1,18.9
3,O=C(C[n+]1cc(-c2ccc(F)cc2)n2c1CCC2)Nc1nc(-c2ccccc2)cs1.[Cl-],16.1
4,O=C(O)c1ccccc1C(=O)N1N=C2/C(=C/c3cccc([N+](=O)[O-])c3)CCCC2C1c1cccc([N+](=O)[O-])c1 (stereo not drawn),7.5
5,O=C(NC1CCCCCC1)C(=O)NC1CC1,13
6,CCOCCNC(=O)c1ccc2c3c(cccc13)CC2,10.9
7,Cc1cc2ncn(-c3ncnc4sc5c(c34)CCC(C)C5)c2cc1C (stereo not drawn),-0.88
8,CC(NC(=O)c1ccc2c(c1)S(=O)(=O)N=C1CCCCCN12)c1ccc(S(N)(=O)=O)cc1 (stereo not drawn),-0.551
9,Cc1ccc(NC(=O)C2CCN(S(=O)(=O)c3cccs3)CC2)c(O)c1,2.97
10,CN(C)c1oc(-c2ccccc2Cl)nc1S(=O)(=O)c1ccccc1,5.01
11,COc1cccc(C(O)c2nc3ccccc3n2C)c1 (stereo not drawn),11.8
12,NC(=O)c1cc([N+](=O)[O-])cc2c1C=Cc1ccccc1O2,4.96
13,NNC(=O)C(Cc1ccccc1)NC(=O)OCc1ccccc1 (stereo not drawn),31.9
14,CCOC(=O)C1CCN(S(=O)(=O)c2ccc(OC)c(C(=O)N3CCCCCC3)c2)CC1,10
15,COc1cc(CN2CCCC(C(=O)Nc3ccccc3Oc3cccnc3)C2)ccc1F (stereo not drawn),1.16
16,C=CCC1c2cccc(C(=O)O)c2C(=O)N1c1ccc(F)cc1 (stereo not drawn),3.84
17,Cc1oc2ccc(OC(=O)N3CCOCC3)cc2c1C(=O)OC(C)C,13.6
18,O=S(=O)(NNc1ccc(Cl)nn1)c1ccc(F)cc1,3.03
19,CCC1=Nc2cc(C(=O)NCCN3CCCC3)ccc2Sc2ccccc21,9.43
20,Nc1ccc(C2(c3ccc(N)cc3)c3ccccc3-c3ccccc32)cc1,5.49
21,C=CCn1c(SCC(=O)Nc2cccc(S(=O)(=O)N(C)c3ccccc3)c2)nnc1C1CC1,-3.67
